± gives the standard deviation of the averaged measurements. The list shows a part of the results.

This test has as its system PfAP2-G AP2 domain (GST-tagged). Nature of the test: gcPBM binding intensity (ln(normalized median fluorescence intensity)); higher = stronger DNA binding. A digest of the protocol: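 DNA-binding domains from P. falciparum, fused to GST and produced in E. coli, were put on an Agilent 4 × 180k double-stranded probe array for 1 h in 1× PBS holding 1% milk, 0.2 mg/ml BSA, 0.5% salmon testes DNA and 0.03% Triton X-100. Probes were primer-extended, 36 bp long and drawn from intergenic genomic regions, with negative controls included. After Alexa488 anti-GST antibody detection and a 488 nm scan, binding intensity was set as the highest Masliner-normalised natural-log median intensity across replicate spots of either probe orientation.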
For “TGCTATTATTTATGTACACACCAATTTATTTATAAT [CACACA_site6029]”, the “gcPBM binding intensity (ln)” value came to 11.3 ± 0.67.
For “TTCGTTATATTTTGATGTACTGATTCATATATATAT [XGTACX_site1835]” the value was 11 ± 0.67; for “TTATAATATAAAAATAAATAAATAAATAAATAAATA [CACACA_negctrl_site1587]”, 9.53 ± 0.24.
Under “AATACGCATTTTAGTACACACTTAAAAAGTTATTTT [CACACA_site7401]” stands 11.3 ± 0.9.
“AATTATATTAATTCTTCATTACATTTTAAAATATTA [XGTACX_negctrl_site510]”: the “gcPBM binding intensity (ln)” value worked out at 9.935 ± 0.064.
For “ATTATATATGTATAAATATGCTATATATATATATAT [GTGCAC_negctrl_site430]” the value was 9.94 ± 0.55; for “TCAACATTTAAAAATAGTACTCATAAACCTTTCGAA [XGTACX_site4111]”, 11.1 ± 0.62.
For “ATAAATAAAAAACACACACACACACCCAAAAAAAAA [CACACA_site2624]” the value was 10.5 ± 0.31; for “TAATATTTATTCTATTGTACATAAAATATATATATA [XGTACX_site7132]”, 11.1 ± 0.83; for “GGAAAGACATTACACAGTACCCAGGAAATCTACGGA [XGTACX_site2002]”, 10.7 ± 0.35.
Under “TATATTATTTAAAAAGTGCAGTTACAAGATGAACCT [GTGCAC_site9641]” stands 10.1 ± 0.11; under “TATACATATGTATGCACACATACATACACATAGAAT [CACACA_site3480]”, 10.1 ± 0.25.
Take “TATGCAAGGAACCACACACACACACCCAAATGTATA [CACACA_site750]”: the “gcPBM binding intensity (ln)” value was 10.4 ± 0.33.
Under “AGATTATATATATGTATATATGTATATATTTATATA [CACACA_negctrl_site1797]” stands 9.48 ± 0.2.
Under “TCTACAAGGCTTGATCGTACAATTTGAATGTATTTG [XGTACX_site7698]” stands 10.7 ± 0.52; under “CTCAACATATACGTAACACACATATATATATATATA [CACACA_site3838]”, 10.2 ± 0.18.
Under “AAAATAACGAGTCAAACACACATATATATATATATA [CACACA_site2039]” stands 10.1 ± 0.25; under “AGCATAAACAATTTTTGAAAAAATATACACTCATAG [CACACA_negctrl_site890]”, 9.935 ± 0.007.
Regarding “TATATATATATATACACACACACAAAAAAAAAAAAA [CACACA_site1505]”, the “gcPBM binding intensity (ln)” value came to 10.3 ± 0.95.
Under “AACATATTTTTAAATACACACACATAAAAAAAAAAA [CACACA_site8279]” stands 10.1 ± 0.28; under “TATCTCTCTTTCTGCTGTACATAAAAATTATATAAT [XGTACX_site5961]”, 11.2 ± 0.83; under “AGAAAATACACGCATACACACACACCCACCCACATA [CACACA_site8115]”, 10.6 ± 0.35.
Under “CAAAAAAAGAAAGCTACACACATTTATGTGCTATAT [CACACA_site2777]” stands 9.835 ± 0.078.
For “TATATATAATATACATGTACAAATGTATTTAAAAAT [XGTACX_site6090]” the value was 10.9 ± 0.42.
Take “TCATATTTGCCTTTTTATTTAGAACACAAAAAAAAA [CACACA_negctrl_site1152]”: the “gcPBM binding intensity (ln)” value stood at 10.3 ± 0.44.
Under “TAAATAGCCAAACGCACACCCACAAAAAAAAAAAAA [CACACA_site1554]” stands 10.2 ± 0.59; under “ATTATAATAGTTAAATGTACACACTAACTACATGGA [XGTACX_site6918]”, 11.3 ± 0.69.
For “AATTAAAAATTCAAGTGTACTTTTATATTATTATAC [XGTACX_site4106]” the value was 11.5 ± 1.1; for “ATTCGGATATATATCACACATAACTTTAATAATATA [CACACA_site5720]”, 9.81 ± 0.085; for “AATTAAAAAATTTATGCACACTTTAAAAAAAAAAAA [CACACA_site5962]”, 10 ± 0.32.
Under “ATAATAAAATAAGAAGCACACAAATATTATATATAA [CACACA_site9319]” stands 10.04 ± 0.021; under “TTCTTCAATAATAAGTGTACATATGCATACATTATA [XGTACX_site1502]”, 11.2 ± 0.69.
With “AAAAAAAATAAAAATAGTACTCAAAAAATTATGAAT [XGTACX_site3073]”, the “gcPBM binding intensity (ln)” value is 11.3 ± 0.67.
For “ATATTAATTTCTTATGCATGTTCTACCAAATTGTAT [TGCATGCA_site38]” the value was 10.06 ± 0.064; for “GATATGATATGATATGCATGTAACAAATTTTTTTAA [TGCATGCA_site268]”, 9.65 ± 0.12.
For “AAAAAAAAATATATATATATATATATATTTATGTAT [GTGCAC_negctrl_site483]”, the “gcPBM binding intensity (ln)” value was 9.54 ± 0.042.
Consider “ACACATTCGAAAAATTGTACATATATAACAGAATAT [XGTACX_site7106]”, for which the “gcPBM binding intensity (ln)” value turned out to be 11.1 ± 0.7.
For “AGTCATATAAATAGTAGTACTGTGTGTGAAGAAAAA [XGTACX_site5056]”, the “gcPBM binding intensity (ln)” value is 11.3 ± 0.73.
For “ACAAATATGAGAAATTGTACATATAATAAAATAGTA [XGTACX_site2573]” the value was 10.9 ± 0.57.
For “GACTGCACTTTAAGCACACAAATATATTTTTTTTAT [CACACA_site1249]” the value was 10.2 ± 0.12.
Under “AATATTTTTTAAATGTGTACATAGGTATAGCACACA [XGTACX_site8690]” stands 11.4 ± 0.91.
As for “AATTATTCTCTTTTCATTTGAACAATATGCTTAAAA [CACACA_negctrl_site995]”, the “gcPBM binding intensity (ln)” value turned out to be 9.98.
For “ATCAAATTTGGACATGCATGTGTGTGTAAAACCATG [TGCATGCA_site309]” the value was 10.6 ± 0.24; for “ATATTAGTCGAATGATGTACACACATACAAAACATT [XGTACX_site8613]”, 11.3 ± 0.74.
